Measurements reported in patent US20060058336A1, “Pharmaceutical composition for treatment of drug dependence” (priority 2003, published 2006).

System: wild-type mice
Test: Ethanol CPP test in wild-type mice
Settings: donepezil 1 mg/kg 20 min before 20% (v/v) ethanol 10 ml/kg i.p., 3 days, P<0.05 vs saline, FIG. 7

In the case of `COc1cc2c(cc1OC)C(=O)C(CC1CCN(Cc3ccccc3)CC1)C2` (stereo not shown) [donepezil], the “ethanol-induced CPP” value is reported as “significantly reduced”.
